PubChem BioAssay AID1508642 (National Center for Advancing Translational Sciences (NCATS), 2021)
Screen size: about 43,000 compounds; about 200 (0.47%) were called active. The inconclusive results got no clear call from the source; some entries with a clear call stand among them for comparison. Calls come from the whole dose curve; as a rule, active = well fitted cell-killing curve with a large enough effect; inconclusive = small, poorly fitted or top-dose-only effect, or effect the other way; inactive = flat fitted curve, though single readings scatter. Potencies beside an inconclusive call are fits to weak or partial responses and may not hold up.

Assay: Cell viability qHTS assay in S16 Pmp22-F2sN cells; note: nearly all actives have a fitted effect of over 65% in size
Details: S16 Pmp22-F2sN Schwann cells (luciferase reporters placed in the Pmp22 gene) viability, CellTiter-Glo, 24 h; activity change, negative = cytotoxicity: at 57.5 µM (top of the series)
Procedure, shortened: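 Luminescence from CellTiter-Glo, read by CCD camera after a 15 min room-temperature incubation, served as the viability signal. Reporter Schwann cells (S16 Pmp22-F2sN) had been treated with pin-transferred compounds for 24 h at 37C.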
% is set by controls: 0 for no effect and ±100 for the full control effect; potency is the fitted concentration of half-maximal effect; tags give direction and shape of the fitted curve.

Row | Structure (SMILES) | Potency | activity change, negative = cytotoxicity
1 | CCC(CC)C(=O)Nc1nnc(SCc2cc(=O)c3ccccc3[nH]2)s1 | inconclusive: 11.2 µM [cytotoxic, partial curve, poor fit] | 
2 | COc1ccc(OC)c(CCNC(=O)c2ccc3c(c2)c(C)c(C)n3Cc2ccccc2)c1 | inconclusive: 39.8 µM [cytotoxic, single point] | 
3 | CCN1CCN(CCCNC(=O)CS(=O)(=O)Cc2nc(-c3cccc(OC)c3)oc2C)CC1 | inconclusive: 0.02 µM [rising, full curve, poor fit] | 
4 | CCC(CC)c1nn2c(=O)cc(COc3ccc(NC(=O)c4ccccc4C)cc3)nc2s1 | inconclusive: 1 µM [rising, full curve, poor fit] | 
5 | COc1ccc(S(=O)Cc2ccc(C(=O)N3CCN(c4cccc(C)c4C)CC3)o2)cc1 (stereo not given) | inconclusive: 22.4 µM [cytotoxic, partial curve, poor fit] | 
6 | O=C(CCCCn1c(=O)c2ccccc2n(CC(=O)Nc2cccc(C(F)(F)F)c2)c1=O)NCc1ccc2c(c1)OCO2 | inconclusive: 39.8 µM [cytotoxic, single point] | 
7 | CCc1cccc(C)c1NC(=O)CCS(=O)(=O)c1cc(Br)cc2c1N(C(=O)C1CC1)CC2 | inconclusive: 39.8 µM [cytotoxic, single point] | 
8 | COc1c(C)cc(Br)cc1C(=O)Nc1ccc(-c2nc3ncccc3o2)cc1 | inconclusive: 39.8 µM [cytotoxic, single point] | 
9 | Cc1nc(SCC(=O)Nc2ccccc2C)cc(-c2ccccc2)n1 | inconclusive: 31.6 µM [rising, partial curve, poor fit] | 
10 | Cc1ccc(-n2ncc3c(NCCO)ncnc32)cc1Cl | inconclusive: 28.2 µM [cytotoxic, partial curve, poor fit] | 
11 | Cc1ccc(C(=O)c2cn(Cc3ccccc3)c3nc(C)ccc3c2=O)cc1 | inconclusive: 8.91 µM [rising, partial curve, poor fit] | 
12 | CCCC(=O)N1CCN(c2nc3ccc(F)cc3s2)CC1 | inconclusive: 31.6 µM [cytotoxic, single point] | 
13 | Cc1cc(C)c(/C=C/c2onc(C)c2S(=O)(=O)N2CCC(C(=O)NCCc3ccccc3)CC2)c(C)c1 | inconclusive: 31.6 µM [cytotoxic, single point] | 
14 | CCCCN(C)C(=O)c1ccc2c(c1)N(Cc1cccc(F)c1)C(=O)c1ccccc1S2 | inconclusive: 25.1 µM [cytotoxic, single point] | 
15 | CCOC(=O)c1scc(-c2ccc(C)cc2)c1S(=O)(=O)Nc1cc(OC)ccc1OC |  | inactive: 18.4%
